Assay results as given in paper PMC4336329 (PLoS ONE, 2015).
Among all 310,000 compounds or so, about 14,000 (4.5%) showed an effect of 50% or more. The effect is printed as a negative number. This is one part of the list.

What follows are compounds tested against human ether-à-go-go-related gene (hERG) potassium channel (human, UniProt Q12809) (assay: primary screen, population patch clamp on CHO cells stably expressing hERG).
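Also: peak tail current of the secondary pulse compared with the same well before compound.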

Sequence of human ether-à-go-go-related gene (hERG) potassium channel (Q12809 whole entry, looked up): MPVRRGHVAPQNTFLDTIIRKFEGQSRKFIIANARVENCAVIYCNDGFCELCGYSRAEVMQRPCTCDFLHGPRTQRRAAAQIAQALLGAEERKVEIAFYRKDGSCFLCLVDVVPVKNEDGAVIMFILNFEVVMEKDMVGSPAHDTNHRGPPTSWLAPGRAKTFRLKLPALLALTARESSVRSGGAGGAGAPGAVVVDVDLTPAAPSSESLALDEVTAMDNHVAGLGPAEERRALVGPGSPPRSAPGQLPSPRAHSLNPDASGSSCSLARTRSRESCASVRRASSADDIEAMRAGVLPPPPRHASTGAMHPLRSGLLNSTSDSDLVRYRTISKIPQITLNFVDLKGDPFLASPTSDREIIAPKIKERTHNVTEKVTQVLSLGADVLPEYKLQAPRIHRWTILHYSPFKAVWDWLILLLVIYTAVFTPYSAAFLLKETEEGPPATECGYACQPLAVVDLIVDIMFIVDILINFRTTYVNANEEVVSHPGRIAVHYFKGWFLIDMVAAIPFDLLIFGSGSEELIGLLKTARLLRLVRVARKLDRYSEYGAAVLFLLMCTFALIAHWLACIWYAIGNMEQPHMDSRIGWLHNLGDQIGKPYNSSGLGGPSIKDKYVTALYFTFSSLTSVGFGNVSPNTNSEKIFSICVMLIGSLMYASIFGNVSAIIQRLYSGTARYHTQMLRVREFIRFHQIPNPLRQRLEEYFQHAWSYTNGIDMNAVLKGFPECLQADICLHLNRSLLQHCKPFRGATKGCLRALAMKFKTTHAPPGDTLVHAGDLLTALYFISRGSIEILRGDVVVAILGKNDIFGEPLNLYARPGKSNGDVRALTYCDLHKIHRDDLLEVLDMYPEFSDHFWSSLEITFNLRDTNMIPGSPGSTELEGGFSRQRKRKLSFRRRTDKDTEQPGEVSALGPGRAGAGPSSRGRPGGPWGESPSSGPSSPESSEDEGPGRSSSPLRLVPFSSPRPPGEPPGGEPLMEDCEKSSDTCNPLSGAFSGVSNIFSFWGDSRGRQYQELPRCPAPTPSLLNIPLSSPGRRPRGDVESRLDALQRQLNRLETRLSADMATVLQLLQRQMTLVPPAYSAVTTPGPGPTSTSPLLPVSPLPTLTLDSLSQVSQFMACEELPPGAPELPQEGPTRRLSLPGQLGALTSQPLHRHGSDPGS

For NC(=O)C1(N2CCCCC2)CCN(C(=O)CSc2nc3ccccc3s2)CC1, which “hERG current change (%, negative = inhibition) at 10uM” value is on record?
The value was -33.7%.

Cc1ccc(OCC(=O)N2CCN(S(=O)(=O)c3ccc(Cl)cc3)CC2)c([N+](=O)[O-])n1 was tested. Which “hERG current change (%, negative = inhibition) at 10uM” value did it give?
Its value is -48.8%.

How did the “hERG current change (%, negative = inhibition) at 10uM” value turn out when O=c1oc2ccccc2c(Nc2ccccc2O)c1[N+](=O)[O-] was run?
The value was 1.12%.

How did the “hERG current change (%, negative = inhibition) at 10uM” value turn out when S=C(NCCc1ccccc1)N/N=C/c1c(Cl)cccc1Cl was run?
The value was -4.01%.

C=CCn1c(C)nc2c(sc3nc4c(cc32)COC(C)(C)C4)c1=O was tested. Which “hERG current change (%, negative = inhibition) at 10uM” value did it give?
The value was 7.28%.

Which “hERG current change (%, negative = inhibition) at 10uM” value does the source give for COc1cccc(-n2c(SCC(N)=O)nc3c([nH]c4ccccc43)c2=O)c1 here?
Its value is -0.054%.

CC(=O)c1cccc(NC(=O)N(c2ccccc2)c2ccccc2)c1 was tested. Which “hERG current change (%, negative = inhibition) at 10uM” value did it give?
Its value is -6.48%.

With CCC(C)NC(=O)CN(c1cc(Cl)cc(Cl)c1)S(C)(=O)=O (stereo not drawn) as the compound, how does the “hERG current change (%, negative = inhibition) at 10uM” value read?
The value was 5.04%.

How did the “hERG current change (%, negative = inhibition) at 10uM” value turn out when O=[N+]([O-])c1ccc2[nH]c(O)c(N=NC3CS(=O)(=O)CC3O)c2c1 (stereo not drawn) was run?
The value was 12.5%.

With CCN(CC)C(c1ccc(C)cc1)c1nnnn1C1CCCCC1.Cl (stereo not drawn) as the compound, how does the “hERG current change (%, negative = inhibition) at 10uM” value read?
Its value is -4.52%.

Which “hERG current change (%, negative = inhibition) at 10uM” value does the source give for CCCn1cc(NC(=O)C2CC(c3cccc(Br)c3)=NO2)cn1 (stereo not drawn) here?
The value was -38.2%.

With COc1ccc(NC(=O)Cn2c3ccc(OC)cc3c3nc4n(c(=O)c32)CCS4)cc1 as the compound, how does the “hERG current change (%, negative = inhibition) at 10uM” value read?
The value was 6.12%.

COC(=O)C(NNc1ccccc1)(NC(=O)c1ccc(F)cc1)C(F)(F)F (stereo not drawn) was tested. Which “hERG current change (%, negative = inhibition) at 10uM” value did it give?
Its value is -2.1%.

For CC(Oc1ccccc1Cl)C(=O)Nc1ccc(S(=O)(=O)N2CCCC2)cc1 (stereo not drawn), which “hERG current change (%, negative = inhibition) at 10uM” value is on record?
Its value is -17.1%.

For CC(C)c1ccc(NC(=O)Cn2ncn3c(cc4ccccc43)c2=O)cc1, which “hERG current change (%, negative = inhibition) at 10uM” value is on record?
The value was 5.06%.

Which “hERG current change (%, negative = inhibition) at 10uM” value does the source give for Cc1oc(-c2ccc(F)cc2)nc1CN(Cc1ccccn1)CC1CCCO1 (stereo not drawn) here?
Its value is -19.8%.

COC(=O)CCC(=O)OC1(C)C(=O)C=C2C=C(C3CC3)N(c3ccccc3)C=C2C1=O (stereo not drawn) was tested. Which “hERG current change (%, negative = inhibition) at 10uM” value did it give?
The value was -6.94%.

How did the “hERG current change (%, negative = inhibition) at 10uM” value turn out when Cc1cc(C)c(S(=O)(=O)c2ccc(C(C)(C)C)cc2)c(Cl)n1 was run?
Its value is 16.7%.

For C=CCn1c(N)cc(=O)nc1SCC(=O)NC(C)c1ccccc1 (stereo not drawn), which “hERG current change (%, negative = inhibition) at 10uM” value is on record?
The value was 13.8%.

For CCOc1ccc(NC(=O)C2CCCN(S(=O)(=O)c3ccc(-n4cnnn4)cc3)C2)cc1 (stereo not drawn), which “hERG current change (%, negative = inhibition) at 10uM” value is on record?
Its value is 10.8%.

With Cc1noc(C)c1C(=O)Nc1nc(-c2ccc(F)c(F)c2)cs1 as the compound, how does the “hERG current change (%, negative = inhibition) at 10uM” value read?
Its value is 0.641%.

With CNC(=O)C(=O)NCC1CCCN1S(=O)(=O)c1cccs1 (stereo not drawn) as the compound, how does the “hERG current change (%, negative = inhibition) at 10uM” value read?
The value was 12.4%.

With Cc1c(C#N)c2ccccc2n1CC(=O)NCc1ccccc1 as the compound, how does the “hERG current change (%, negative = inhibition) at 10uM” value read?
The value was -3.03%.

O=C(O)CSc1nnc(-c2ccncc2)n1-c1ccc(Cl)cc1 was tested. Which “hERG current change (%, negative = inhibition) at 10uM” value did it give?
Its value is -13%.

O=C(CSc1ccc(F)cc1)Nc1ccccc1Br was tested. Which “hERG current change (%, negative = inhibition) at 10uM” value did it give?
The value was -6%.

How did the “hERG current change (%, negative = inhibition) at 10uM” value turn out when O=c1[nH]c(=S)n(-c2ccccc2F)c(O)c1C=NCc1ccco1 was run?
The value was -0.509%.

For Cc1cccn2c(=O)c(/C=N/O)c(N3CCOCC3)nc12, which “hERG current change (%, negative = inhibition) at 10uM” value is on record?
The value was 12.1%.

How did the “hERG current change (%, negative = inhibition) at 10uM” value turn out when O=C(C1CCCN(Cc2ccc(Br)cc2)C1)N1CCCCC1.O=C(O)C(=O)O (stereo not drawn) was run?
The value was -37.2%.

For O=C(O)CCCCCNc1ccc2nsnc2c1[N+](=O)[O-], which “hERG current change (%, negative = inhibition) at 10uM” value is on record?
The value was 6.8%.

Which “hERG current change (%, negative = inhibition) at 10uM” value does the source give for COc1ccc(CCNC(=O)c2ccc(CS(=O)Cc3ccc(C)cc3)o2)cc1OC (stereo not drawn) here?
Its value is 8.06%.

For Cc1nc2sccn2c(=O)c1S(=O)(=O)Nc1cccc(Cl)c1C, which “hERG current change (%, negative = inhibition) at 10uM” value is on record?
Its value is -22.8%.

CC(=O)c1ccc(N(CC(=O)NC2CCS(=O)(=O)C2)S(=O)(=O)c2ccc(Cl)cc2)cc1 (stereo not drawn) was tested. Which “hERG current change (%, negative = inhibition) at 10uM” value did it give?
Its value is 5.96%.

With COC/C=C/C1=CC2=CC(=O)C(C)(O)C(=O)C2=CO1 (stereo not drawn) as the compound, how does the “hERG current change (%, negative = inhibition) at 10uM” value read?
Its value is 19.3%.

With COc1cccc(-n2c(CCn3nc(C)c([N+](=O)[O-])c3C)n[nH]c2=S)c1 as the compound, how does the “hERG current change (%, negative = inhibition) at 10uM” value read?
The value was 8.2%.

How did the “hERG current change (%, negative = inhibition) at 10uM” value turn out when CC1(C)CC(=O)C2=C(C1)N(c1ccc(F)cc1)C(=O)NC2(C(F)(F)F)C(F)(F)F was run?
The value was -13%.

For COc1ccccc1CC(=O)Nc1ccc(S(=O)(=O)N2CCCCC2)cc1, which “hERG current change (%, negative = inhibition) at 10uM” value is on record?
The value was 5.54%.

How did the “hERG current change (%, negative = inhibition) at 10uM” value turn out when COc1ccccc1N(CC(O)CN1CCC(C)CC1)S(=O)(=O)c1ccccc1 (stereo not drawn) was run?
Its value is -19.2%.

Which “hERG current change (%, negative = inhibition) at 10uM” value does the source give for O=c1c2oc3nc4c(cc3c2ncn1CCCc1ccccc1)CCCC4 here?
The value was -21.5%.

With CC(=O)Nc1ccc(CN2CCN(Cc3ccc(C)cc3)C(CCO)C2)cc1 (stereo not drawn) as the compound, how does the “hERG current change (%, negative = inhibition) at 10uM” value read?
Its value is -34.5%.

Which “hERG current change (%, negative = inhibition) at 10uM” value does the source give for COc1ccc(NC(=O)N(Cc2cc3cc(OC)c(OC)cc3[nH]c2=O)CC2CCCO2)cc1 (stereo not drawn) here?
The value was -0.0111%.

Which “hERG current change (%, negative = inhibition) at 10uM” value does the source give for Cc1nnsc1C(=O)NC1CCCCC1 here?
The value was 6.7%.

For C=CCNC(=O)/C(C#N)=C/c1c(N2CCCCCC2)nc2ccccn2c1=O, which “hERG current change (%, negative = inhibition) at 10uM” value is on record?
The value was -59.6%.

With CS(=O)(=O)c1ccc(CNC(=O)[C@]2(C(F)(F)F)C[C@H](CCc3ccccc3)CCCO2)cc1 as the compound, how does the “hERG current change (%, negative = inhibition) at 10uM” value read?
The value was 10.7%.

For COc1ccc(C(=O)/C=C/c2cccnc2)c(OC)c1, which “hERG current change (%, negative = inhibition) at 10uM” value is on record?
Its value is 10.4%.

COc1ccc(NC(=O)c2cccc(S(=O)(=O)N3CCOCC3)c2)cn1 was tested. Which “hERG current change (%, negative = inhibition) at 10uM” value did it give?
The value was 1.3%.

With Cc1ccc(NC2=NCC(=O)N2CCc2ccccc2)cc1C as the compound, how does the “hERG current change (%, negative = inhibition) at 10uM” value read?
The value was 3.94%.

With Cc1c(N(C(=O)c2ccccn2)C2(C(=O)NC3CCCC3)CCCCC2)c(=O)n(-c2ccccc2)n1C as the compound, how does the “hERG current change (%, negative = inhibition) at 10uM” value read?
The value was -11.3%.

For O=C(COC(=O)c1ccccc1C(=O)N1CCN(c2ccccc2)CC1)Nc1ccc(F)cc1, which “hERG current change (%, negative = inhibition) at 10uM” value is on record?
Its value is -21.6%.

How did the “hERG current change (%, negative = inhibition) at 10uM” value turn out when O=C(Oc1ccc2ccc(=O)oc2c1)c1ccc([N+](=O)[O-])cc1 was run?
Its value is 6.74%.

How did the “hERG current change (%, negative = inhibition) at 10uM” value turn out when Cc1c(-n2cccc2C=O)cccc1[N+](=O)[O-] was run?
The value was -17.9%.

COc1ccc(Br)cc1CNC(=O)CCC(=O)N1CCSc2ccccc21 was tested. Which “hERG current change (%, negative = inhibition) at 10uM” value did it give?
Its value is -19.8%.

How did the “hERG current change (%, negative = inhibition) at 10uM” value turn out when CCOC(=O)/C=c1\s/c(=C\c2ccc(-c3ccccc3)cc2)c(=O)n1CC(=O)NCc1ccc2c(c1)OCO2 was run?
The value was -11.9%.

Which “hERG current change (%, negative = inhibition) at 10uM” value does the source give for CCNC(=S)N(CCc1ccccc1C)Cc1cc2cc(OC)c(OC)cc2[nH]c1=O here?
Its value is -22.3%.

Which “hERG current change (%, negative = inhibition) at 10uM” value does the source give for Cc1ccn2c(NCc3ccccc3)c(-c3cccs3)nc2c1 here?
Its value is 12.5%.
